{"source": "paper PMC12136788", "binders": {"B1": {"name": "ENSG00000198589:be:win_51|CDS|ENSG00000198589|bound_else_gene|NA|bound_elsewhere_windowed (ssRNA)", "RNA": "GGGAGUUCUACAGUCCGACGAUCCGGGGGAGGUGGAGGGAGAGAAGAAACCCCUACUGAAGGGGGUGCAUUGUCUCUGAAACCAGGGCUCCCCAUCAGGGGCAUCAGAAUGAAAUUUGCCGUGUUGACCGGUUUGGUUGAAGUCAACAGAGGAUUGAGCAUCA"}, "B2": {"name": "ENSG00000186448:stop:overlap|stop_codon|ENSG00000186448|stop_codon|NA|stop_codon (ssRNA)", "RNA": "GGGAGUUCUACAGUCCGACGAUCUUGAGGAAUUCUCUUGGCUACAAAACACCAAUGAGUCCAAGAUUGAGAUUCAGAAAAUCUAGUGUCAUAUGUAAAAUGGAAUAGAAUCCCUGCCUACUUAAGUAACUGUUGGACAAAUGACAACAGAGGAUUGAGCAUCA"}, "B3": {"name": "chr11:5233990:5234213:-|CDS|ENSG00000223609|control|control|control (ssRNA)", "RNA": "GGGAGUUCUACAGUCCGACGAUCGAUGCUGUUAUGGGCAACCCUAAGGUGAAGGCUCAUGGCAAGAAGGUGCUAGGUGCCUUUAGUGAUGGCCUGGCUCACCUGGACAACCUCAAGGGCACUUUUUCUCAGCUGAGUGAGCUGCAACAGAGGAUUGAGCAUCA"}, "B4": {"name": "chr9:34086386:34088349:-|three_prime_utr|ENSG00000198876|control|control|control (ssRNA)", "RNA": "GGGAGUUCUACAGUCCGACGAUCCUCAGUUUCCUUGUUUCUUUUGAUUUUUUUUUUCCUAAUUGUGUGAGGCUCUUGUGUUUUAGUGGGAACACCAAAGUUUGCCUAUAGUUUAGGCACUUAAUAGGAAGAAGCUCUGUACAGCAACAGAGGAUUGAGCAUCA"}, "B5": {"name": "chr2:162011792:162011987:-|CDS|ENSG00000197635|control|control|control (ssRNA)", "RNA": "GGGAGUUCUACAGUCCGACGAUCACUGUCUUCAGACUGAACUGGGCCACUUACCUUGCAAGCACAGAAAACAUUAUAGUAGCUAGCUUUGAUGGCAGAGGAAGUGGUUACCAAGGAGAUAAGAUCAUGCAUGCAAUCAACAGACAACAGAGGAUUGAGCAUCA"}, "B6": {"name": "chr15:85746268:85746369:+|3pUTR|ENSG00000170776|msi1|FALSE|bound_elsewhere (ssRNA)", "RNA": "GGGAGUUCUACAGUCCGACGAUCUGUUUUAUUUAUUGUAUUUGUGUGUUUGUGUUUGUUUUUUUUUAAGGGUGAGCCAGGUCUAGCCCAACAGUCUAAACUAUCCAGUCAAUACCGAGUGAAGUGGCAGCCAGCACUGUUCACCAACAGAGGAUUGAGCAUCA"}, "B7": {"name": "ENSG00000070961:be:win_5501|3pUTR|ENSG00000070961|bound_else_gene|NA|bound_elsewhere_windowed (ssRNA)", "RNA": "GGGAGUUCUACAGUCCGACGAUCCAGUAAUCCUCUGCAGGUCUUAGAAACACAUUGGCUCUGUCAGCAUUUGUAAUUGUACAUUUAUUCAUCAGGUAUUUAUAGUGAAUCAUACUGUAAAAAAGAGGUAGCAUGAUAUGCUGGCAACAGAGGAUUGAGCAUCA"}, "B8": {"name": "chr11:113276125:113276317:+|3pUTR|ENSG00000149294|msi1|FALSE|unique (ssRNA)", "RNA": "GGGAGUUCUACAGUCCGACGAUCGUCCGUGUAAAAUAGCUGCCUUUUAUUUUUUAAGGUAACAAAUACCACCUAGAGGUAGGUAGGAUCAUCCCACGCUUGCUUUAGCACAGGACAACUUUACAAAACAUGAUUGUUUACAGCCAACAGAGGAUUGAGCAUCA"}, "B9": {"name": "chr2:27376893:27376994:+|3pUTR|ENSG00000115234|msi1|FALSE|unique (ssRNA)", "RNA": "GGGAGUUCUACAGUCCGACGAUCGGGCUGGCUGCACAGAGGAUUGCCCCUUCUCUUUUCAGAGCUGGCCCUCGAUGCCAAAUUAGCAUUUAGUAUUUUGCACAAAGUCUAAGGGACCAUGGCUGCCUGCCUUGGGGAGGAACCCAACAGAGGAUUGAGCAUCA"}, "B10": {"name": "chr6:52501983:52502084:-|3pUTR|ENSG00000065308|msi1|total|mutant (ssRNA)", "RNA": "GGGAGUUCUACAGUCCGACGAUCGGCCGCCCUUGUUGAGUGUUCUUUGGAAUUGUCGUUUUUUGAGCACAACUACAGCAUUUCCGACUGCAUGAAACCAUGACUGACUGAGAGUCACUCUCUGGGCCGAUGACCGGCGCCUUUCAACAGAGGAUUGAGCAUCA"}, "B11": {"name": "chr12:49796586:49796721:-|CDS|ENSG00000167566|msi1|FALSE|unique (ssRNA)", "RNA": "GGGAGUUCUACAGUCCGACGAUCGAGGCCCACAGGCCAGGCUUCGGUGCUACCUCAGAGGGCCAGGGGCCCCUCCCCUUCCUUAGCAUGUUCAUGGGUGCUGGGGAUGCCCCACUGGGCUCUCGGCCUGGCCACCCCCAUUCCCAACAGAGGAUUGAGCAUCA"}, "B12": {"name": "chr2:121605696:121605828:-|CDS|ENSG00000074054|unk|FALSE|unique (ssRNA)", "RNA": "GGGAGUUCUACAGUCCGACGAUCGAUAGACUAUUUCUCAGACAAACAGAAGUCUGCUGACCUUGAGCAUGACCAGACCAUGUUAGAUAAACUUGUGGAUGGACUUGCUACCUCUUGGGUGAACUCUAGCAAUUACAAGGUAAGCAACAGAGGAUUGAGCAUCA"}, "B13": {"name": "ENSG00000124766:be:win_3801|3pUTR|ENSG00000124766|bound_else_gene|NA|bound_elsewhere_windowed (ssRNA)", "RNA": "GGGAGUUCUACAGUCCGACGAUCUGUUUAAUAUAACAUGACAGGCACUAGGACGUCUGCCUUUUUAAGGCAGUUCCGUUAAGGGUUUUUGUUUUUAAACUUUUUUUUGCCAUCCAUCCUGUGCAAUAUGCCGUGUAGAAUAUUCAACAGAGGAUUGAGCAUCA"}, "B14": {"name": "chr17:18327447:18327548:+|3pUTR|ENSG00000176994|msi1|FALSE|unique (ssRNA)", "RNA": "GGGAGUUCUACAGUCCGACGAUCGUCAACUCACAGAUUCUGCAGCAGCUGCUCCACCCACAAUAAAGCAAACGCCGACAGGCUAGACCCCAGAUUGCAGGGGCUGCCACCUACAAGGUGGGACCACAGGCUGCCUCACCGGGACAACAGAGGAUUGAGCAUCA"}, "B15": {"name": "chr5:10264816:10264917:+|3pUTR|ENSG00000150753|msi1_unk|total|mutant (ssRNA)", "RNA": "GGGAGUUCUACAGUCCGACGAUCAAUGGAUGUCUCGUGAUGCAUCUACAGUUAUUUAUUGUUACAUCCUUUUCCAGACACUGCCGAUGCUAUAAUAAAAACCGCUGUUUGGUAACCACCGUUUCACUUGUUCAAAGCUGUGUACAACAGAGGAUUGAGCAUCA"}, "B16": {"name": "ENSG00000070961:be:win_1001|CDS|ENSG00000070961|bound_else_gene|NA|bound_elsewhere_windowed (ssRNA)", "RNA": "GGGAGUUCUACAGUCCGACGAUCAGCCAUUGAAGAGUGAAGAAGGUGGAGAUGGUGAUGAAAAAGAUAAAAAGAAAGCAAAUUUGCCAAAAAAGGAAAAAUCUGUUUUACAAGGGAAACUUACAAAACUGGCUGUUCAGAUUGCAACAGAGGAUUGAGCAUCA"}, "B17": {"name": "ENSG00000137504:stop:overlap|stop_codon|ENSG00000137504|stop_codon|NA|stop_codon (ssRNA)", "RNA": "GGGAGUUCUACAGUCCGACGAUCAGGUGUCGGUGGAGUUCUGCUCGGCGUGCGCCCGGAAGGCGUCGUCUUCUCUUAAAAUGUAGGGUCAAGUAAUCUGCUCUUUAUCCGCGUUUACCCCUUUCAACUCCCUUACACCAUGUCCAACAGAGGAUUGAGCAUCA"}, "B18": {"name": "chr20:56404979:56405080:+|3pUTR|ENSG00000101138|unk|total|mutant (ssRNA)", "RNA": "GGGAGUUCUACAGUCCGACGAUCCCGCGCCCAGCCUUCCUGAAGCUUUUCCGAACAUGACAGUACUUCUCUGGAUUCAGCACCCGCAGAGUCAGAGAACUCUGAACUCCCCUUGUACAAACAUAAACUUUGCUUUAUAUUUAUCAACAGAGGAUUGAGCAUCA"}, "B19": {"name": "chr10:62092816:62092917:+|CDS|ENSG00000150347|msi1|FALSE|unique (ssRNA)", "RNA": "GGGAGUUCUACAGUCCGACGAUCUUUUACAUCACCGACAAAUUCUCAGCAGCUGUACAGACACUUGGCUGCGGCUACACCUGUAGGAAGUUCAUAUGGGGACCUUUUGCAUAACAGCAUUUACCCUUUAGCUGCUAUAAAUCCCAACAGAGGAUUGAGCAUCA"}, "B20": {"name": "chr3:157259741:157261133:-|three_prime_utr|ENSG00000197415|control|control|control (ssRNA)", "RNA": "GGGAGUUCUACAGUCCGACGAUCACUAAAUACCAAUGGAAUUGUUGUCCUUUAAGAAGAAGGGCCUAAAAUGGCAGGAUUCUUAGUAAAUGUCAUACUCUAACAGCUUUAGUAUUGACUUCAGAAUAUAUCUGAUGCCCACAACAACAGAGGAUUGAGCAUCA"}, "B21": {"name": "chr3:25618756:25618858:-|CDS|ENSG00000077097|unk|total|mutant (ssRNA)", "RNA": "GGGAGUUCUACAGUCCGACGAUCUAUAUAAGUUAAAAUACCAGUACAGAUCUAUAUGAUCUGCAAAGUAUAUGUGUUUUGCUCCGGUACUUUUUGAUCAUAUGGGAUGUCUGAAGAAAUAUGAAACUGUGCAAGACAUUCUGACAACAGAGGAUUGAGCAUCA"}, "B22": {"name": "chr7:44573567:44573675:-|CDS|ENSG00000136271|unk|total|mutant (ssRNA)", "RNA": "GGGAGUUCUACAGUCCGACGAUCCGCACGGGCUCCGGGAAGACGGCCGCUUAUGCUAUUCCGAUGCUGCAGCUGUUGCUCCACCGGAAGGCGGUGGGUAACGAGAGAGCUGAGGGGAGGAAGGAGGCAAGCUCCAAAAGCCUGCAACAGAGGAUUGAGCAUCA"}}, "note": "The list shows a part of the results.", "data": [{"biological_target": "T1, UNK ZnF1-6 (called full-length) (human, UniProt Q9C0B0 30-357)", "T1 sequence": "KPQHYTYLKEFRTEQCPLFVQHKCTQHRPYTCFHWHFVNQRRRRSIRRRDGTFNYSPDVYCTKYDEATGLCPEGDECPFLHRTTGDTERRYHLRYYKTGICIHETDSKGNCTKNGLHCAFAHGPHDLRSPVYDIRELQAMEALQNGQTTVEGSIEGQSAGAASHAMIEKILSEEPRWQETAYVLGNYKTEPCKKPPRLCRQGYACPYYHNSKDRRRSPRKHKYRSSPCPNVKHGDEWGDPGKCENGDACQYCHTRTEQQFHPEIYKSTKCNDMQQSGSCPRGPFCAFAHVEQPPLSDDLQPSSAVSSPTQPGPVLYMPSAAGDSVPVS", "experiment": "nsRBNS (natural sequence RNA bind-n-seq); RBNS binding buffer (assumed for nsRBNS): 25 mM Tris pH 7.5, 150 mM KCl, 3 mM MgCl2, 0.01% Triton X-100, 500 ug/ml BSA, 20 U/ml SUPERase-In, 4 C; UNK is unkempt and MSI1 is Musashi-1; names of the RNAs are library labels; protein concentration not given here; high values mean tight binding", "units": {"binding signal": "enrichment R"}, "values": [{"binder": "B1", "binding signal": 0.759}, {"binder": "B2", "binding signal": 0.754}, {"binder": "B3", "binding signal": 0.653}, {"binder": "B4", "binding signal": 0.955}, {"binder": "B5", "binding signal": 0.583}, {"binder": "B6", "binding signal": 1.34}, {"binder": "B7", "binding signal": 0.543}, {"binder": "B8", "binding signal": 0.606}, {"binder": "B9", "binding signal": 1.7}, {"binder": "B10", "binding signal": 0.527}, {"binder": "B11", "binding signal": 0.706}, {"binder": "B12", "binding signal": 0.726}, {"binder": "B13", "binding signal": 0.544}, {"binder": "B14", "binding signal": 0.87}, {"binder": "B15", "binding signal": 0.394}, {"binder": "B16", "binding signal": 0.569}, {"binder": "B17", "binding signal": 0.67}, {"binder": "B18", "binding signal": 0.644}, {"binder": "B19", "binding signal": 0.658}, {"binder": "B20", "binding signal": 0.511}, {"binder": "B21", "binding signal": 0.35}, {"binder": "B22", "binding signal": 0.755}]}]}
